# Assay results from the supplement of paper PMC4604168 (melanoma cell lines).
# The other results are listed elsewhere or left out. Repeats are few or missing, and single values can be far off.
# What was measured:
# Experiment in all cases: cell count relative to DMSO control; melanoma cells; higher = more viable cells
# Conditions in all cases: library dose: standard library concentration; 72 h
# G361 = tested on: G361
# IPC-298 = tested on: IPC-298
# IST-MEL1 = tested on: IST-MEL1
# LB2518-MEL = tested on: LB2518-MEL
# LOXIMVI = tested on: LOXIMVI
# MEL-HO = tested on: MEL-HO
# MZ2-MEL = tested on: MZ2-MEL
# MeWo = tested on: MeWo
# RPMI7951 = tested on: RPMI7951
# RVH-421 = tested on: RVH-421
# SkMel28 = tested on: SkMel28
# SkMel2 = tested on: SkMel2
# SkMel30 = tested on: SkMel30
# SkMel5 = tested on: SkMel5
# UACC257 = tested on: UACC257
# UACC62 = tested on: UACC62
# WM115 = tested on: WM115
# WM1716 = tested on: WM1716
# WM3526 = tested on: WM3526
# 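Note: cells treated in 1,536-well plates, then fixed and DAPI-stained, with nuclei counted from automated high-throughput microscope images.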
Compound,cell count (G361) [%],cell count (IPC-298) [%],cell count (IST-MEL1) [%],cell count (LB2518-MEL) [%],cell count (LOXIMVI) [%],cell count (MEL-HO) [%],cell count (MZ2-MEL) [%],cell count (MeWo) [%],cell count (RPMI7951) [%],cell count (RVH-421) [%],cell count (SkMel28) [%],cell count (SkMel2) [%],cell count (SkMel30) [%],cell count (SkMel5) [%],cell count (UACC257) [%],cell count (UACC62) [%],cell count (WM115) [%],cell count (WM1716) [%],cell count (WM3526) [%]
"C[C@]12O[C@H](C[C@]1(O)CO)n1c3ccccc3c3c4c(c5c6ccccc6n2c5c31)CNC4=O [Lestaurtinib] + O=S(=O)(c1ccccc1)N(CC(F)(F)F)c1ccc(C(O)(C(F)(F)F)C(F)(F)F)cc1 [T0901317] (first compound 0.02 µM, partner dose 7 µM)",69.7,78.1,104,88.4,84.2,80.5,104,79.2,89.2,99.7,65.3,88.6,101,64.7,77.3,87.7,92.5,101,61.1
"N.N.[Cl][Pt][Cl] [cisplatin] + O=S(=O)(c1ccccc1)N(CC(F)(F)F)c1ccc(C(O)(C(F)(F)F)C(F)(F)F)cc1 [T0901317] (first compound 8 µM, partner dose 7 µM)",82.4,95,96.2,85.6,94.6,90.8,102,92.9,111,105,67.6,89,97.3,83.2,81.2,73.1,108,104,87.2
"C[C@]12O[C@H](C[C@]1(O)CO)n1c3ccccc3c3c4c(c5c6ccccc6n2c5c31)CNC4=O [Lestaurtinib] + N#Cc1c(O)c2c(-c3ccc(-c4ccccc4O)cc3)csc2[nH]c1=O [A769662] (first compound 0.02 µM, partner dose 10 µM)",99.5,92.7,97.9,77.8,99.7,101,104,76.9,100,132,70.5,111,105,71.3,121,96.5,79.4,105,77.2
"C[C@]12O[C@H](C[C@]1(O)CO)n1c3ccccc3c3c4c(c5c6ccccc6n2c5c31)CNC4=O [Lestaurtinib] + O=C(Oc1ccc([N+](=O)[O-])cc1)N1CCC(C(O)(c2ccc3c(c2)OCO3)c2ccc3c(c2)OCO3)CC1 [JZL184] (first compound 0.02 µM, partner dose 5 µM)",66,74.3,96.7,63.1,82.2,81.5,111,67.4,68.1,85.3,68.9,83.5,79.3,59.6,86.2,70.4,77.5,80.8,63.2
"N.N.[Cl][Pt][Cl] [cisplatin] + Cc1cc([N+](=O)[O-])ccc1NS(=O)(=O)c1cc(Cl)ccc1Cl [FH535] (first compound 8 µM, partner dose 5 µM)",40.9,51.2,47.7,72.3,43,50.1,67.4,96,80.3,44.8,61.3,82.1,91.1,68.1,32.3,98.5,97.3,72.6,73.2
"N.N.[Cl][Pt][Cl] [cisplatin] + Cn1cc(/C=C2\C(=O)Nc3cccnc32)c2ccccc21 [GW441756] (first compound 8 µM, partner dose 2 µM)",90.3,83,102,57.3,65.7,71.5,70.9,86,75,69.9,48.5,98.8,89.4,78.3,70,55.9,100,105,89.4
"N.N.[Cl][Pt][Cl] [cisplatin] + O=C(O)C(=O)Nc1sc2c(c1C(=O)O)CCNC2 [TCS401] (first compound 8 µM, partner dose 8.33333 µM)",75.4,91.8,101,90.2,101,85.4,86.1,99.7,117,63.1,75.2,87.2,71.7,73.4,86.4,66.4,96.4,85,88.8
"Cn1cc(C2=C(c3cn(C4CCN(Cc5ccccn5)CC4)c4ccccc34)C(=O)NC2=O)c2ccccc21 [Enzastaurin] + CC(C)CCN1c2nc(Nc3cc(F)c(O)c(F)c3)ncc2N(C)C(=O)C1C [BID1870] (first compound 4 µM, partner dose 1 µM)",59.5,86,67.5,46.4,74.1,78.5,76.5,63.6,45.3,62.7,78.3,55.6,90.5,63.6,78.7,63.6,104,11.7,64.5
"N.N.[Cl][Pt][Cl] [cisplatin] + CCCCCCCCCCCC1=C(O)C(=O)C=C(O)C1=O [Embelin] (first compound 8 µM, partner dose 6 µM)",86.1,72.8,91.2,112,56.3,87.4,100,93.2,95.1,68,66,112,95.5,90.6,65.1,79.9,92.3,77.2,88.1
"N.N.[Cl][Pt][Cl] [cisplatin] + O=c1cc(-c2cccc3c2Sc2ccccc2S3)oc(N2CCOCC2)c1 [KU55933] (first compound 8 µM, partner dose 5 µM)",62,76.4,87.5,64.7,272,78.1,91,91.3,58.8,81.5,96.1,73.9,91,94,97.7,79.8,112,82.1,77.3
"Cn1cc(C2=C(c3cn(C4CCN(Cc5ccccn5)CC4)c4ccccc34)C(=O)NC2=O)c2ccccc21 [Enzastaurin] + O=S(=O)(c1ccccc1)N(CC(F)(F)F)c1ccc(C(O)(C(F)(F)F)C(F)(F)F)cc1 [T0901317] (first compound 4 µM, partner dose 7 µM)",68,78.7,62.1,46.6,101,79.8,99.1,71,49.4,62.7,67.2,56.4,94.6,72.8,65.5,57.8,109,74.8,90
"N.N.[Cl][Pt][Cl] [cisplatin] + C/C(O)=C(\C#N)C(=O)Nc1cc(Br)ccc1Br [LFM-A13] (first compound 8 µM, partner dose 10 µM)",103,103,90.6,90,70.9,105,96.1,90.5,81.5,96.4,104,104,87.7,92.6,82,76.1,73.9,93,80.4
"C[C@]12O[C@H](C[C@]1(O)CO)n1c3ccccc3c3c4c(c5c6ccccc6n2c5c31)CNC4=O [Lestaurtinib] + CCc1ccc(CCOc2ccc(CC3SC(=O)NC3=O)cc2)nc1 [pioglitazone] (first compound 0.02 µM, partner dose 10 µM)",87.3,75.7,98.5,73.7,75.5,76.5,105,82.8,88.1,91.2,46.4,91.5,78.8,52.5,82.9,78.3,73.4,82.1,72.3
"C[C@]12O[C@H](C[C@]1(O)CO)n1c3ccccc3c3c4c(c5c6ccccc6n2c5c31)CNC4=O [Lestaurtinib] + COc1ccc(-c2ccc3c(N4CCOCC4)nc(N4C[C@@H](C)O[C@@H](C)C4)nc3n2)cc1CO [KU0063794] (first compound 0.02 µM, partner dose 0.1 µM)",61.6,52.7,93.5,62,91.3,68,72.9,50.8,104,86.2,52.5,84.8,65.5,47.1,87,63.1,59.2,65.1,52.4
"C[C@]12O[C@H](C[C@]1(O)CO)n1c3ccccc3c3c4c(c5c6ccccc6n2c5c31)CNC4=O [Lestaurtinib] + CC(C)CCN1c2nc(Nc3cc(F)c(O)c(F)c3)ncc2N(C)C(=O)C1C [BID1870] (first compound 0.02 µM, partner dose 1 µM)",48.4,51.3,78.3,69.9,76.3,57.3,92.9,48.1,58.1,69.4,49.8,61.9,49.3,63.9,74.2,49.9,53.3,72.4,45.2
"C[C@]12O[C@H](C[C@]1(O)CO)n1c3ccccc3c3c4c(c5c6ccccc6n2c5c31)CNC4=O [Lestaurtinib] + Cc1cc([N+](=O)[O-])ccc1NS(=O)(=O)c1cc(Cl)ccc1Cl [FH535] (first compound 0.02 µM, partner dose 5 µM)",43.3,47.2,59.8,49.2,80.3,43.7,63.9,67.1,82.8,53.6,51.1,74.5,74.7,54.3,80.4,72,72.5,72.9,70.9
